# Data: PubChem BioAssay AID624296 (National Center for Advancing Translational Sciences (NCATS), 2012)
# The campaign covered roughly 350,000 compounds. About 9,900 (2.8%) were called active. Inconclusive results, whose numbers are uncertain, are shown with a selection of clear calls. Calls follow the shape of the dose curve; as a rule, active = well fitted activation curve with a large enough effect; inconclusive = small, poorly fitted or top-dose-only effect; inactive = no such curve, though single readings can be large or run the other way. No potency is given beside an inconclusive call; the fits are too rough.
# Assay: A quantitative high throughput screen for small molecules that induce DNA re-replication in MCF 10a normal breast cells. Also: nearly all actives have a fitted effect of over 50% in size. As to activity, positive = re-replication: % of control where 0% means no effect.
# Details: MCF 10A DNA re-replication, Hoechst nuclear intensity, 48 h; activity, positive = re-replication: at 46.1 µM (top of the series)
# Potency is read from the fitted curve at half-maximal effect; tags tell the direction and shape of the fitted curve.
Compound,Potency,"activity, positive = re-replication"
Cc1ccc(NC(=O)C2(c3ccccc3)CCOCC2)c([N+](=O)[O-])c1,"inconclusive [activator, single point]",–
COc1ccc(S(=O)(=O)N2CCOCC2)cc1NC(=O)CCNC(=O)c1ccc(Cl)cc1,"inconclusive [activator, single point]",–
COc1ccc(C2=CCCCCC2)c(OC)c1OC,"inconclusive [activator, partial curve, poor fit]",–
CCOC(=O)Cc1c(C)nc2cc(-c3ccc(C(C)(C)C)cc3)[nH]n2c1=O,–,inactive: -18.9%
O=C(COc1ccc2ccccc2c1)Nc1ccc2c3c(cccc13)CC2,active: 20.6 µM,–
Cc1cc(C)c2sc(NNC(=O)C3COc4ccccc4O3)nc2c1 (stereo not drawn),"inconclusive [activator, single point]",–
CC(=O)c1sc(NC(=O)c2ccccc2C)nc1C,"inconclusive [activator, single point]",–
CC(C)[C@H](NC(=O)[C@@H]1Cc2c([nH]c3ccccc23)C2c3ccccc3C(=O)N21)C(=O)NCC1CCCO1 (stereo partly drawn),"inconclusive [activator, single point]",–
CCCc1ccc(O)c(N=Cc2cc(Br)cc(OCC)c2O)c1,"inconclusive [activator, single point]",–
O=C(c1cc2ccccc2oc1=O)N(Cc1ccc2c(c1)OCO2)Cc1ccco1,"inconclusive [activator, partial curve, poor fit]",–
CC(=O)N=c1c(C#N)cc2c(=O)n3ccccc3nc2n1CCCOC(C)C,"inconclusive [activator, single point]",–
O=C(CSc1nc2ccccc2c(=O)[nH]1)N1CCCCCC1,"inconclusive [activator, partial curve, poor fit]",–
O=C(NCC(c1cccs1)N1CCOCC1)c1ccccc1NS(=O)(=O)c1ccc(Cl)c([N+](=O)[O-])c1 (stereo not drawn),active: 14.6 µM,–
Cc1cc(=O)oc2cc(NC(=O)c3cccc(Br)c3)ccc12,"inconclusive [activator, single point]",–
O=C(C1CCCN(S(=O)(=O)c2ccccc2)C1)N1CCN(c2ccccc2)CC1 (stereo not drawn),–,inactive: 18.7%
O=C(Nc1cccc(S(=O)(=O)NC2=NCCC2)c1)c1ccc(=O)[nH]c1,"inconclusive [activator, full curve, poor fit]",–
Clc1ccc(/C=N\Nc2ccccc2)cc1,"inconclusive [activator, single point]",–
COc1ccc(/C=C/C(=O)Nc2cccc(S(=O)(=O)N3CCOCC3)c2)cc1OC,–,inactive: 8.84%
